Experimental data from the supplement of paper PMC7125110.
± gives the standard error. Variants at the floor of the assay are shown more often than the library holds them.

B1: glmS ribozyme (parent)
chain: AUAAAAGCGCCAGAACUACAGAAAUGUAGUUGACGAGGAGGAGGUUUAUCGAAUUUUCGGCGGAUGCCUCCAAA

Assays:
Details in all cases: with glucosamine-6-phosphate
glucosamine-6-phosphate [1] = variants of: B1; assay: self-cleavage kobs at 40 uM GlcN6P; higher = faster cleavage; RNA array
Method in brief: (§1)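 kobs was derived by fitting per-tile medians to one- or two-exponential decays after normalising signals to baseline and to non-cleaving reference variants. Those signals came from barcoded ribozyme variants transcribed in situ by E. coli RNA polymerase on sequenced MiSeq chips, followed through a hybridised Cy3 probe at 37 °C and imaged over ~14 h. Glucosamine-6-phosphate (40 μM to 10 mM) in HEPES/KCl/Mg(OAc)2 buffer was flowed in. Weighted Michaelis–Menten fits across concentrations then gave kcat and KM.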

glucosamine-6-phosphate [2] = variants of: B1; assay: self-cleavage kobs at 160 uM GlcN6P; higher = faster cleavage; RNA array
Method in brief: as §1

glucosamine-6-phosphate [3] = variants of: B1; assay: self-cleavage kobs at 10000 uM GlcN6P; higher = faster cleavage; RNA array
Method in brief: as §1

glucosamine-6-phosphate [4] = variants of: B1; assay: self-cleavage kobs at 2500 uM GlcN6P; higher = faster cleavage; RNA array
Method in brief: as §1

glucosamine-6-phosphate [5] = variants of: B1; assay: self-cleavage kobs at 640 uM GlcN6P; higher = faster cleavage; RNA array
Method in brief: as §1

Variant | self-cleavage kobs at 40 uM GlcN6P (glucosamine-6-phosphate [1]) [s⁻¹] | self-cleavage kobs at 160 uM GlcN6P (glucosamine-6-phosphate [2]) [s⁻¹] | self-cleavage kobs at 10000 uM GlcN6P (glucosamine-6-phosphate [3]) [s⁻¹] | self-cleavage kobs at 2500 uM GlcN6P (glucosamine-6-phosphate [4]) [s⁻¹] | self-cleavage kobs at 640 uM GlcN6P (glucosamine-6-phosphate [5]) [s⁻¹]
A64U U65A | < 1e-05 | < 1e-05 | < 1e-05 |  | 
A64U U69A | < 1e-05 |  |  |  | 
U65A C71A | 5.65e-05 ± 2.4e-05 |  | 0.00104 ± 0.00039 | 0.0012 ± 0.00041 | 
U65C C67U | < 1e-05 |  |  |  | 
U65C U69C | < 1e-05 |  |  |  | 
G66A C67U | 0.000173 ± 2.6e-05 | 0.000398 ± 6.5e-05 | 0.00498 ± 0.00098 | 0.0016 ± 0.0003 | 0.00134 ± 0.0002
G66U C68U | 2.21e-05 ± 1e-05 | 3.82e-05 ± 1.3e-05 | 0.000311 ± 2.9e-05 | 0.000226 ± 4e-05 | 0.000116 ± 1.2e-05
G66U C70U | 6.67e-05 ± 8e-06 | 0.000141 ± 1.7e-05 |  |  | 0.000507 ± 4.8e-05
C67A | 0.000434 ± 1.5e-05 | 0.00132 ± 8.4e-05 | 0.0155 ± 0.00076 | 0.0101 ± 0.00044 | 0.004 ± 0.00015
C67G | 3.28e-05 ± 1e-06 | 0.000109 ± 2.8e-06 | 0.00145 ± 3.7e-05 | 0.00108 ± 3.9e-05 | 0.00046 ± 4e-05
C67U C71G | 1.88e-05 ± 9.1e-06 | 3.83e-05 ± 1.2e-05 | 5.12e-05 ± 5.1e-06 | 0.00068 ± 0.00033 | 4.78e-05 ± 5.4e-06
C68A C70U | < 1e-05 |  |  |  | 
C68U C70A C71U | < 1e-05 |  | < 1e-05 | < 1e-05 | 
C68U C70U | < 1e-05 |  |  |  | 
C68U U69G C71A | < 1e-05 |  |  |  | 
U69A | 0.000341 ± 7.7e-05 | 0.000534 ± 0.00018 | 0.000299 ± 4.6e-05 | 0.00219 ± 0.0004 | 0.000282 ± 3.1e-05
U69C C71G | 3.93e-05 ± 1.3e-05 | 0.000225 ± 0.00011 | 6.79e-05 ± 9e-06 | 7.01e-05 ± 1.5e-05 | 6.76e-05 ± 1.6e-05
U69G | 0.000371 ± 0.00012 | 5.87e-05 ± 2.4e-06 |  |  | 0.000488 ± 0.00012
C70G | 0.000246 ± 5.2e-05 |  |  |  | 
A72C | 0.000372 ± 7.3e-05 |  | 0.0121 ± 0.0021 | 0.00362 ± 0.00077 | 0.00257 ± 0.00043
A1U U2G A3G A5U A14C U69C |  | 5.02e-05 ± 1.8e-05 |  | 0.000526 ± 0.00012 | 0.000257 ± 6e-05
U2A A6G G7C C8G G9C A12G G13A A14C U49G |  |  |  |  | < 1e-05
A6C A12G A36G |  |  |  |  | < 1e-05
A6C A14G C67U C70A |  |  |  | < 1e-05 | < 1e-05
A6C A14U U31C G40U C50U C70U |  |  |  |  | < 1e-05
A6C A15G U65C |  |  |  |  | < 1e-05

Variant | self-cleavage kobs at 40 uM GlcN6P (glucosamine-6-phosphate [1]) [s⁻¹] | self-cleavage kobs at 160 uM GlcN6P (glucosamine-6-phosphate [2]) [s⁻¹] | self-cleavage kobs at 10000 uM GlcN6P (glucosamine-6-phosphate [3]) [s⁻¹] | self-cleavage kobs at 2500 uM GlcN6P (glucosamine-6-phosphate [4]) [s⁻¹] | self-cleavage kobs at 640 uM GlcN6P (glucosamine-6-phosphate [5]) [s⁻¹]
A6C A33C C50U C70U |  | < 1e-05 |  | < 1e-05 | < 1e-05
A6C A33U C70A |  |  |  |  | < 1e-05
A6C A36G A42U |  |  |  | < 1e-05 | < 1e-05
A6C A48G |  | < 1e-05 |  | < 1e-05 | < 1e-05
A6C A53G |  |  |  |  | 3.04e-05 ± 1.3e-05
A6C C8A A39U G41C U65G C71A |  |  |  |  | < 1e-05
A6C C8A U47A G63U |  |  |  | < 1e-05 | < 1e-05
A6C C8G C11A A52C U57G G63C U69G |  |  |  |  | 0.0016 ± 0.00077
A6C C8G G38U A39G |  |  |  |  | < 1e-05
A6C C8U |  | < 1e-05 | < 1e-05 | < 1e-05 | < 1e-05
A6C C10U C16G C58A |  | < 1e-05 |  | < 1e-05 | < 1e-05
A6C C10U G40U C70A |  |  |  | < 1e-05 | < 1e-05
A6C C11U G44U C68U C71U |  | < 1e-05 |  |  | < 1e-05
A6C C16U A33C G41A C58A |  |  |  |  | < 1e-05
A6C C34U A42C U47A G63C A64G |  |  |  | < 1e-05 | < 1e-05
A6C G7A G29A G40C U54A C61A C68G |  |  |  | < 1e-05 | < 1e-05
A6C G7C A15U |  | < 1e-05 |  | < 1e-05 | < 1e-05
A6C G7U A33U G43A U65C |  |  |  |  | < 1e-05
A6C G32U A48G |  | < 1e-05 |  |  | < 1e-05
A6C G35A A53U |  | < 1e-05 |  |  | < 1e-05
A6C G35C G41C |  |  |  |  | < 1e-05
A6C G37C U65A |  | < 1e-05 |  | < 1e-05 | < 1e-05
A6C G38A G41U |  | < 1e-05 |  | < 1e-05 | < 1e-05
A6C G40C C50U C58U |  |  |  | < 1e-05 | < 1e-05
A6C G41A U45C |  |  | < 1e-05 |  | < 1e-05
